# Data published in paper PMC10320511.
# Amino acid sequences for entries named in this document (tags omitted).
# UniProt Q01371: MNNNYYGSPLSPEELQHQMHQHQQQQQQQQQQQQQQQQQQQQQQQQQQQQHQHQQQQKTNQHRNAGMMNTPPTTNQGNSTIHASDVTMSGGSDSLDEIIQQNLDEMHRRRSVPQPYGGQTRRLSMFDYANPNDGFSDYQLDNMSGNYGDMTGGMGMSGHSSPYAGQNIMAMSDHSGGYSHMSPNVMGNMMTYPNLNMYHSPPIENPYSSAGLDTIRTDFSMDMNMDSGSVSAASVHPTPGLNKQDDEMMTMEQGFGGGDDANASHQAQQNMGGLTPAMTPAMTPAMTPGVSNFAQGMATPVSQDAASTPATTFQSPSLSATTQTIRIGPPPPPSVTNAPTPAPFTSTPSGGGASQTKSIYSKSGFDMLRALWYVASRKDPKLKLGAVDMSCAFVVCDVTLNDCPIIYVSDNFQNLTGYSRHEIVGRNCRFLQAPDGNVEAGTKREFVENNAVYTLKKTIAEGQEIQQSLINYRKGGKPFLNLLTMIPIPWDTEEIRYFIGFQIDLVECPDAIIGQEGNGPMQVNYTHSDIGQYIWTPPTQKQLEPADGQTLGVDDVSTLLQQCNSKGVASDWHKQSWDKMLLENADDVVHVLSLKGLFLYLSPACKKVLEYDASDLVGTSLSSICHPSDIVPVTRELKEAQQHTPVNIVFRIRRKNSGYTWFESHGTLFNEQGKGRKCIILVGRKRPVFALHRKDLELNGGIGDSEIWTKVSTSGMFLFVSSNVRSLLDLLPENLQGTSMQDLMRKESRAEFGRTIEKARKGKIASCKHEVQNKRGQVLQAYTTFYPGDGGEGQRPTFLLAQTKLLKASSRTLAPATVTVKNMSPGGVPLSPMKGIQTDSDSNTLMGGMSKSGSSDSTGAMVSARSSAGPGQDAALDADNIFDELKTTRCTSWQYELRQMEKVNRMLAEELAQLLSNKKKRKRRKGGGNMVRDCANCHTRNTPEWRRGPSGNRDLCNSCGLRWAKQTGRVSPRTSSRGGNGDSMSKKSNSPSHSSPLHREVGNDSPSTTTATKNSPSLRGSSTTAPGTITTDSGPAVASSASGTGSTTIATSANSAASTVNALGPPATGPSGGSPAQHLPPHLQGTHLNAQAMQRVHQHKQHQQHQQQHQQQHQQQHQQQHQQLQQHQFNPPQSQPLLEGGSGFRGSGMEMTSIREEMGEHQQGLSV
# These are yes or no findings as the source states them, for the method shown. In cells and extracts the contact can be indirect. Some binding calls cover weakened binding; strength is not graded here. Tags and fused reporters may be left off the sequences shown.
# Tests used:
# [1] = target: T1, FRQ Δ149–193, V5H6-tagged (Neurospora crassa) (UniProt P19970); test: co-IP; V5H6-tagged FRQ (wild type or mutant) pulled down with V5 agarose from Neurospora lysate (cultures in the light, 25 °C); 50 mM Hepes pH 7.4, 137 mM NaCl, 10% glycerol, 0.4% NP-40; 4 °C, 2 h; Western blot with FRQ, FRH, WC-1 and WC-2 antibodies
# T1 sequence: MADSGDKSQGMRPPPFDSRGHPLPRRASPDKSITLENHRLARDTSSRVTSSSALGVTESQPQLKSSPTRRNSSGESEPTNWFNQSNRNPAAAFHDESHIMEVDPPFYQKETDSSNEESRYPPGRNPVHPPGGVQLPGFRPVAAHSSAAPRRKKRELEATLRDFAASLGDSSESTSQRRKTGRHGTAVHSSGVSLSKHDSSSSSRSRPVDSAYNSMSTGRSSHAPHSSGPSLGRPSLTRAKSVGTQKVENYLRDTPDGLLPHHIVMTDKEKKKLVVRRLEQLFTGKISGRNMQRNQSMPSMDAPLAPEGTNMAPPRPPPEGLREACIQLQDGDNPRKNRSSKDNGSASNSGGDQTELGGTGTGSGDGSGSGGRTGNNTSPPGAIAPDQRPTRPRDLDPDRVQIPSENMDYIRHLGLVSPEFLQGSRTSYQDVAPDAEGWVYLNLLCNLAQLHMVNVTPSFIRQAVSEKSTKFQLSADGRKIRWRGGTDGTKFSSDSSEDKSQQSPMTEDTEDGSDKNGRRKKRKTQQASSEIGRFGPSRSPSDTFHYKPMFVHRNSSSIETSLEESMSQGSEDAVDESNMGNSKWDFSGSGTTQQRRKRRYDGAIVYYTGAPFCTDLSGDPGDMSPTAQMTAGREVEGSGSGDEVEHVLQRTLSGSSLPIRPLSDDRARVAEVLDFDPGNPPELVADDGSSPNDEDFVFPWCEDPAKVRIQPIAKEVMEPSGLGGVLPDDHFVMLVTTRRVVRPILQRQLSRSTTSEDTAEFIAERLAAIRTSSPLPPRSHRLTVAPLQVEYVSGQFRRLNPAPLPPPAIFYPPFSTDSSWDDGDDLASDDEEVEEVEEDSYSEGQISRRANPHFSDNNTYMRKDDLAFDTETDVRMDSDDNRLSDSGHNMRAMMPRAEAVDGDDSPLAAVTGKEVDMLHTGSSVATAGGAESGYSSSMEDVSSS
# [2] = target: T2, FRQ Δ564–603, V5H6-tagged (Neurospora crassa) (UniProt P19970); test: as above
# T2 sequence: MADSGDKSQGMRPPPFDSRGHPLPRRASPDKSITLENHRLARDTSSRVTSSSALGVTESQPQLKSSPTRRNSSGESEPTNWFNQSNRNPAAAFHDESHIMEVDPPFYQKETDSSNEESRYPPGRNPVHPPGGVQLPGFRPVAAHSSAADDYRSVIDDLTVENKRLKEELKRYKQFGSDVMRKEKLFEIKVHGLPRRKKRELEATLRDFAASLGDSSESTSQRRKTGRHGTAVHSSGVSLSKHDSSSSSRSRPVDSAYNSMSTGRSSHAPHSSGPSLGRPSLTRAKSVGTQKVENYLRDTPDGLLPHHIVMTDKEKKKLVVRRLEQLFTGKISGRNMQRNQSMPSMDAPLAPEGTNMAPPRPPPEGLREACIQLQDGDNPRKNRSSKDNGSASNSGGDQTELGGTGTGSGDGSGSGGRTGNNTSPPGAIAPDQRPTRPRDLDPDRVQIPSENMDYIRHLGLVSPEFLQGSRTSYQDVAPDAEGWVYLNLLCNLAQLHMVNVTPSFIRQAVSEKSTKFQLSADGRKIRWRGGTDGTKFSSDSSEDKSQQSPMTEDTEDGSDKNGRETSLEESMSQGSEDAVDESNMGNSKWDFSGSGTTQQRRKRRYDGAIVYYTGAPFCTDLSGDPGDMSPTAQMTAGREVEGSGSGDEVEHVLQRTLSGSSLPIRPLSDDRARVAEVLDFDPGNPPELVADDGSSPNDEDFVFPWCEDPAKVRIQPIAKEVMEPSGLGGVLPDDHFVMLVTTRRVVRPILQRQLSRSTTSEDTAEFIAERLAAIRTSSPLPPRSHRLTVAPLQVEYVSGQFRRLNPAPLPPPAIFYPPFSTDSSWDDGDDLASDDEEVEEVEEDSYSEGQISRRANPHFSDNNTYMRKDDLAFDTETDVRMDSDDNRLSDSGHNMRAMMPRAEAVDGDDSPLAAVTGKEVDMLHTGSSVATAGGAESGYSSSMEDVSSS
substance,measurement,setting,value
White Collar-1 (WC-1) (from UniProt Q01371 1-1167),binding,[1],no binding
same,binding,[2],binds weakly
